Experiments:
[1] = target: Recombinant human angiopoietin-1 (human) (UniProt Q15389); assay: ELISA
[2] = target: T1, Recombinant ADAMTS-13 (human) (UniProt Q76LX8); assay: ELISA
T1 sequence: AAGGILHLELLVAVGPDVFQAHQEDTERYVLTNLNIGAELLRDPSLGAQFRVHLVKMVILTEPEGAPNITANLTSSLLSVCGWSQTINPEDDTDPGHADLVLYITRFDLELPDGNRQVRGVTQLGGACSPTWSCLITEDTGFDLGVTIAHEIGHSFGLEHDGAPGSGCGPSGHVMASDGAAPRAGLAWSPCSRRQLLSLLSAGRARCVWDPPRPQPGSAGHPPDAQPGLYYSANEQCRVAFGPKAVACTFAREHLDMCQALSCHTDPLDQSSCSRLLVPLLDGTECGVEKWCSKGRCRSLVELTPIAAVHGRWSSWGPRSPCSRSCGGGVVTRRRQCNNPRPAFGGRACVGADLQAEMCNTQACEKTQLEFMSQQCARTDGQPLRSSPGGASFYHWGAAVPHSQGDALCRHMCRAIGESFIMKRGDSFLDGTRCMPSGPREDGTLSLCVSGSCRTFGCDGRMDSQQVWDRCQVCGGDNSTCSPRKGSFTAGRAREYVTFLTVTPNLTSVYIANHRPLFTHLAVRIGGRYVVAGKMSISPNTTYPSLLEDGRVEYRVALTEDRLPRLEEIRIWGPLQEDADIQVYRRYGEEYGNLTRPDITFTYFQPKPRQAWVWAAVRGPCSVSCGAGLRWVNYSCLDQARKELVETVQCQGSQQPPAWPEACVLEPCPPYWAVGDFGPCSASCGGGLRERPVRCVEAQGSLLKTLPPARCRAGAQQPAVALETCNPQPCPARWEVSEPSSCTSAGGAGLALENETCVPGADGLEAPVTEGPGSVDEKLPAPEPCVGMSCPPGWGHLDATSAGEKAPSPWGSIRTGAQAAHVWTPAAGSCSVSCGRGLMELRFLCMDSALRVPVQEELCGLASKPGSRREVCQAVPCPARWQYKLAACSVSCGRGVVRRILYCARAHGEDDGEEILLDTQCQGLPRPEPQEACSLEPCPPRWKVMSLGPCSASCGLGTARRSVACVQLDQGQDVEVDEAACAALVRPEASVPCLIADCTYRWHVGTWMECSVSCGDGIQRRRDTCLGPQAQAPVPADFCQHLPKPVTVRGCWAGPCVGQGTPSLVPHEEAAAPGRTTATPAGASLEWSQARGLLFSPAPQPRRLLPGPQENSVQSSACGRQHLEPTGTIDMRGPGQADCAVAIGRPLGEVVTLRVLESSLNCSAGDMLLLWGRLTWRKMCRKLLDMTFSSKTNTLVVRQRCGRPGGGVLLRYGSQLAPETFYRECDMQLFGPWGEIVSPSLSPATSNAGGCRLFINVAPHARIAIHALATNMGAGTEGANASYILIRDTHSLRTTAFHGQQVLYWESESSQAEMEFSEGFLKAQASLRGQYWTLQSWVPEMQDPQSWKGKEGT

UniProt Q15389, sequence (Q15389 16-498): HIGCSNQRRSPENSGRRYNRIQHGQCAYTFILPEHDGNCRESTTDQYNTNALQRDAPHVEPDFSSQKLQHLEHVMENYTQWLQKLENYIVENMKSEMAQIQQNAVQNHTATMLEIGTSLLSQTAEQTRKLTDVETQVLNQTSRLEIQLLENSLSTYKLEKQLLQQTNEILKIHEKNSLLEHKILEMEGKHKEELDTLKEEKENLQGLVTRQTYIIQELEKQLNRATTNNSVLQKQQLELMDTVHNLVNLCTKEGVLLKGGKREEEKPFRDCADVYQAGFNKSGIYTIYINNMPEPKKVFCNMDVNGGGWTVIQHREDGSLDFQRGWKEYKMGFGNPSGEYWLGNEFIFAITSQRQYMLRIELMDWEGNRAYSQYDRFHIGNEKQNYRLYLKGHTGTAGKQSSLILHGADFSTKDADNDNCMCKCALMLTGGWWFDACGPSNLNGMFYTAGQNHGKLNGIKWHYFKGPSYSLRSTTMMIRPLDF

EC50 [1]: 7.2 nM | EC50 [2]: 1.2 nM
Substance: von Willebrand factor (plasma-derived) (a stretch of the chain, no sequence given) (natural protein)
